PubChem BioAssay AID686979 (National Center for Advancing Translational Sciences (NCATS), 2013)
The campaign covered roughly 420,000 compounds. About 50,000 (12%) were called active. Inconclusive means that the source gave no clear call. Such entries were picked first, then a sample of the others. Calls follow the shape of the dose curve; as a rule, active = well fitted inhibition curve with a large enough effect; inconclusive = small, poorly fitted or top-dose-only effect; inactive = flat fitted curve, though single readings scatter. Potencies of inconclusive entries are left out as doubtful fits.

Assay: qHTS for Inhibitors of human tyrosyl-DNA phosphodiesterase 1 (TDP1): qHTS in cells in presence of CPT; also: nearly all actives have a fitted effect of over 55% in size
Conditions: chicken DT40 Tdp1-/-;hTDP1 cells + 20 nM CPT, ATP luminescence, 48 h; activity change, negative = growth inhibition: at 46.2 µM (top of the series) unless noted
Outline: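 Chicken DT40 Tdp1-/- cells complemented with human TDP1, 400 cells/well, exposed to compounds plus 20 nM camptothecin for at least 48 h at 37 C; viability read as ATP content by CellTiter-Glo luminescence.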
% is scaled to controls: 0 for no effect and ±100 for the full control effect; potency is read from the fitted curve at half-maximal effect; tags tell the direction and shape of the fitted curve.

SMILES	Potency	activity change, negative = growth inhibition
Cc1cc(C(=O)OCC(=O)N2CCN(C(=O)c3ccco3)CC2)c(C)n1-c1ccc(F)cc1	inactive	
O=C(CSc1nnc(COc2ccc(Cl)cc2)o1)N1CCN(c2ccccc2)CC1	inconclusive [inhibitor, partial curve]	
O=C(COc1ccccc1F)N/N=C1\CCCc2ccccc21	inconclusive [inhibitor, single point]	
O=S(=O)(NCCSc1nc2ccccc2o1)c1ccccc1	active: 16.4 µM	
COc1ccc(CC(N)c2csc(NC(=O)C(c3ccccc3)c3ccccc3)n2)cc1 (centres undefined)	active: 18.4 µM	
Cc1nc2cc(NC(=O)C3(C)CCCN(C(C)C)C3)ccc2o1 (centres undefined)	inactive	
Cc1ccc(C(O)c2ncc(-c3cccc(C(F)(F)F)c3)[nH]2)c(C)c1 (centres undefined)	inconclusive [inhibitor, single point]	
COc1ccc(CNC(=O)C[C@H]2C[C@H](C(=O)N3CCOCC3)[C@@]3(CCC4CCCC4)c4[nH]c5cc(-c6ccco6)ccc5c4CCN3C2=O)cc1OC	active: 18.4 µM	
COc1ccccc1Cc1c(-c2ccccc2)nc2cc(C)c(Br)c(C)n12	inconclusive [inhibitor, single point]	
NC(=O)c1c(NC(=O)CSc2nnc(Cc3ccccc3)n2Cc2ccco2)sc2c1CCC2	inconclusive [inhibitor, single point]	
Cc1onc(-c2ccccc2)c1C(=O)NC(=S)NNC(=O)c1ccncc1	inconclusive [inhibitor, single point]	
COc1ccc(-c2cc(C(F)(F)F)nc(SCC(=O)NCCc3ccc(OC)c(OC)c3)n2)cc1	active: 20.6 µM	
Cc1ccc(NC(=O)N2CCC(CN3CCC(C)CC3)CC2)cc1F	inactive	
Cc1nnc(NC(=O)CN2C(=O)NC3(CCCC3)C2=O)s1	inactive	
CCn1cc(C(=O)O)c(=O)c2cc(F)c(N3CCN(C(=S)NC(=O)c4c(OC)cccc4OC)CC3)cc21	active: 18.4 µM	
N=c1c2c(-c3ccccc3)c(-c3ccccc3)n(Cc3ccco3)c2ncn1Cc1ccco1	active: 9.2 µM	
Clc1ccc(CNc2ccccn2)cc1	inconclusive [inhibitor, partial curve]	
COc1cc(C(=O)NCC(=O)NCCN2C(=O)S/C(=C\c3ccccc3Cl)C2=O)cc(OC)c1OC	active: 18.4 µM	
COc1ccc(C(=O)Nc2cc(S(=O)(=O)N3CCCC3)ccc2Cl)cc1	inconclusive [inhibitor, single point]	
Cc1ccc(C(CC(=O)Nc2cc(C)cc(C)c2)N2Cc3ccccc3C2=O)cc1 (centres undefined)	active: 14.6 µM	
O=c1c(O)c(-c2ccccc2)oc2cccc(O)c12	inconclusive [inhibitor, single point]	
CN(C)S(=O)(=O)c1ccc2c(c1)C(CC(=O)O)NC2=O (centres undefined)	inactive	
Cn1cc(-c2csc(C(C)(O)c3cccnc3)n2)cn1 (centres undefined)	inactive	

SMILES	Potency	activity change, negative = growth inhibition
CCCC(=O)Nc1ccc(Cl)c(NC(=S)NC(=O)c2cc3ccccc3o2)c1	inconclusive [inhibitor, single point]	
O=C(/C=C/c1ccc(N2CCOCC2)cc1)c1ccccc1	inconclusive [inhibitor, single point]	
Cc1nn(-c2ccccc2)c(N2CCCC2)c1/C=N/NC(=S)Nc1ccccc1F	active: 13 µM	
C/C(CC(=O)Nc1ccc(Cl)c(C(F)(F)F)c1)=N\NC(=O)c1ccccc1O	inconclusive [inhibitor, single point]	
O=C(Nc1cccs1)Nc1ccccc1Cl	inconclusive [inhibitor, single point]	
Cc1cc(C(=O)Nc2nc3ccc(S(C)(=O)=O)cc3s2)c(C)o1	inconclusive [inhibitor, partial curve]	
CNC(=O)c1cc(C)c(-c2ccccc2)s1	inconclusive [inhibitor, single point]	
CCc1cccc(CC)c1NC(=S)Nc1ccccc1	inconclusive [inhibitor, single point]	
O=C(NC1CC(=O)N(c2ccc(Cl)cc2)C1)c1ccc(S(=O)(=O)N2CCCC2)cc1 (centres undefined)	inconclusive [inhibitor, single point]	
CCCN(CC(=O)Nc1ccccc1OC)C(=O)c1ccc(S(=O)(=O)NCc2ccco2)cc1	inconclusive [inhibitor, partial curve, poor fit]	
CCOc1ccc(C(=O)NNC(=O)c2cc(C)oc2C)cc1	inactive	
COCC(=O)N1CCC2(CCCN(c3ccccn3)C2)CC1	inconclusive [inhibitor, full curve, poor fit]	
Cc1ccccc1NC(=O)C(c1ccccc1)C1CCCC1 (centres undefined)	inconclusive [inhibitor, single point]	
O=C(Cn1cc(S(=O)(=O)Cc2ccc(F)cc2)c2ccccc21)NCc1ccccc1Cl	inconclusive [inhibitor, single point]	
O=C(NCCCc1nc2ccccc2n1Cc1ccc(Cl)cc1)c1ccco1	inconclusive [inhibitor, single point]	
COc1ccc(C2Nc3ccccc3C(=O)N2C2CCCCC2)cc1 (centres undefined)	inconclusive [inhibitor, single point]	
CC(=O)N1CCc2cc(S(=O)(=O)CCC(=O)NCCc3ccc(Cl)cc3)ccc21	inconclusive [inhibitor, single point]	
CSc1cccc(NC(=O)C2CCN(S(=O)(=O)c3ccc4c(c3)NC(=O)CO4)CC2)c1	inconclusive [inhibitor, single point]	
CNC[C@H](O)[C@@H](O)[C@H](O)[C@H](O)CO	inactive	
COc1ccccc1OCCCN1C(=O)C(=O)c2cccc(C)c21	active: 4.61 µM	
COc1ccc(-n2c(SCc3ccccc3F)nc3c([nH]c4ccccc43)c2=O)cc1	inconclusive [inhibitor, single point]	
COc1ccc(C(=O)Nc2cc3c4c(c2)C(C)C(=O)N4CCC3)cc1 (centres undefined)		inconclusive: -35.6% [inhibitor]
COc1cc(NC(=S)N2CCC(C(N)=O)CC2)cc(OC)c1	inactive	

SMILES	Potency	activity change, negative = growth inhibition
Cc1cccc(NC(=O)N2CCC(C(=O)c3ccc(F)cc3)CC2)c1	inconclusive [inhibitor, single point]	
O=C(CCC1CCCC1)Nc1cc(Cl)ccc1N1CCOCC1	inconclusive [inhibitor, single point]	
Nc1c(C(=O)Nc2ccc(Br)cc2)sc2nc(-c3ccco3)ccc12	inconclusive [inhibitor, partial curve, poor fit]	
CCOc1ccccc1NS(=O)(=O)c1cnc(N)nc1	inactive	
CCOc1cc(/C=N/NC(=O)Cc2ccc(C(F)(F)F)cc2[N+](=O)[O-])c(Br)cc1OC	inconclusive [inhibitor, single point]	
CCCCN1CC(COCc2ccccc2)Oc2cccc(Oc3ccccc3)c2S1(=O)=O (centres undefined)	inconclusive [inhibitor, single point]	
COc1cccc(/C=N/NC(=O)CSCC(=O)Nc2ccccc2)c1O	active: 4.47 µM	
C=CCn1c(=NC(=O)C2COc3ccccc3O2)sc2cc(S(N)(=O)=O)ccc21 (centres undefined)	inconclusive [inhibitor, single point]	
CCn1cc(C2=NOC(C(=O)Nc3ccc4c(c3)OCO4)C2)c(C)n1 (centres undefined)	inconclusive [inhibitor, partial curve]	
O=C(O)c1ccc(CS(=O)(=O)c2ccc(Br)cc2)cc1	inactive	
CCCC[C@@H](CNC)NC[C@H](NCCCCC1CCCCC1)C(C)C	active: 6.51 µM	
COc1ccc(CCNC(=O)c2cc(-c3ccccn3)nc3c(Cl)cccc23)cc1OC	inactive	
COc1ccc(CCNC(=O)CS(=O)Cc2nc(-c3ccc(C)cc3)oc2C)c(OC)c1 (centres undefined)	inconclusive [inhibitor, single point]	
CC(=O)Nc1cccc(NC(=O)Nc2ccc(F)cc2F)c1	inactive	
CCCNC(=O)c1ccc(N2CCC3(CC2)CC(c2ccccc2)=NO3)c(NC(=O)c2ccc(Br)cc2)c1	inconclusive [inhibitor, single point]	
Cc1cc(C)n(-c2nc(NCCC(C)C)c3c4c(sc3n2)COC(C)(C)C4)n1	active: 9.2 µM	
CCOc1ccc(C2=C(C=Nc3c(C)n(C)n(-c4ccccc4)c3=O)C(c3ccc(F)cc3)c3ccccc3O2)cc1 (centres undefined)	active: 23.1 µM	
O=S1(=O)CC(N2CCN(c3ccccn3)CC2)CN1C1CCCCC1 (centres undefined)	inactive	
NC(=O)CC(NC(=O)c1ccccc1)c1ccc(NCCc2ccc(F)cc2)c([N+](=O)[O-])c1 (centres undefined)	inconclusive [inhibitor, partial curve, poor fit]	
Cc1ccc2nc(SCc3cccc([N+](=O)[O-])c3)nc(C)c2c1	inconclusive [inhibitor, partial curve]	
C=CCN=C1S/C(=C\c2ccc(N(C)C)cc2)C(=O)N1CC=C	inconclusive [inhibitor, single point]	
Cc1ccc(-n2c(C)cc(/C=N/NC(=O)c3ccncc3)c2C)cc1C	inconclusive [inhibitor, single point]	
CCOC(=O)C1(Cc2ccc(OC)cc2)CCN(C(=O)c2ccoc2C)CC1	inconclusive [inhibitor, single point]	
